Here are results for 20 molecules from publication PMC9911399, “Two distinct binding modes provide the RNA-binding protein RbFox with extraordinary sequence specificity”.

Sequences and labels used below:
T1: RBFOX1 RRM (Homo sapiens, UniProt Q9NWB1 109-208)
T1 sequence: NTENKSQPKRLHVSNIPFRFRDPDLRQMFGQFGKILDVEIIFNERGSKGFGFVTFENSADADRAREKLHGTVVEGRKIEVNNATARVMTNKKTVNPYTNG

B1: CUGACGU (DNA:RNA)
RNA: GGGAGACCGGAAUUCAGAUUGUCCCUGACGUUUAAAUCCCGUCGUAGCCACCA
DNA 1: CAATCTGAATTCCGGTCTCCC
DNA 2: TGGTGGCTACGACGGGATT
B2: UCAUUAG (DNA:RNA)
RNA: GGGAGACCGGAAUUCAGAUUGUCCUCAUUAGUUAAAUCCCGUCGUAGCCACCA
DNA 1: CAATCTGAATTCCGGTCTCCC
DNA 2: TGGTGGCTACGACGGGATT
B3: CGCGGAU (DNA:RNA)
RNA: B1 RNA with U26G, G27C, A28G, C29G, G30A
DNA 1: CAATCTGAATTCCGGTCTCCC
DNA 2: TGGTGGCTACGACGGGATT
B4: GAAAAUG (DNA:RNA)
RNA: B2 RNA with U25G, C26A, U28A, U29A, A30U
DNA 1: CAATCTGAATTCCGGTCTCCC
DNA 2: TGGTGGCTACGACGGGATT
B5: AUCGUGG (DNA:RNA)
RNA: B1 RNA with C25A, G27C, A28G, C29U, U31G
DNA 1: CAATCTGAATTCCGGTCTCCC
DNA 2: TGGTGGCTACGACGGGATT
B6: GAUUAAU (DNA:RNA)
RNA: B2 RNA with U25G, C26A, A27U, U29A, G31U
DNA 1: CAATCTGAATTCCGGTCTCCC
DNA 2: TGGTGGCTACGACGGGATT
B7: GGAUGGG (DNA:RNA)
RNA: B2 RNA with U25G, C26G, U29G, A30G
DNA 1: CAATCTGAATTCCGGTCTCCC
DNA 2: TGGTGGCTACGACGGGATT
B8: ACAGAUA (DNA:RNA)
RNA: B2 RNA with U25A, U28G, U29A, A30U, G31A
DNA 1: CAATCTGAATTCCGGTCTCCC
DNA 2: TGGTGGCTACGACGGGATT
B9: UGGAUUA (DNA:RNA)
RNA: B1 RNA with C25U, U26G, C29U, G30U, U31A
DNA 1: CAATCTGAATTCCGGTCTCCC
DNA 2: TGGTGGCTACGACGGGATT
B10: GGAAGGU (DNA:RNA)
RNA: B1 RNA with C25G, U26G, G27A, C29G
DNA 1: CAATCTGAATTCCGGTCTCCC
DNA 2: TGGTGGCTACGACGGGATT
B11: AUGUAUG (DNA:RNA)
RNA: B1 RNA with C25A, A28U, C29A, G30U, U31G
DNA 1: CAATCTGAATTCCGGTCTCCC
DNA 2: TGGTGGCTACGACGGGATT
B12: CGCGAGU (DNA:RNA)
RNA: B1 RNA with U26G, G27C, A28G, C29A
DNA 1: CAATCTGAATTCCGGTCTCCC
DNA 2: TGGTGGCTACGACGGGATT
B13: UACUGAU (DNA:RNA)
RNA: B2 RNA with C26A, A27C, U29G, G31U
DNA 1: CAATCTGAATTCCGGTCTCCC
DNA 2: TGGTGGCTACGACGGGATT
B14: CUACCUC (DNA:RNA)
RNA: B1 RNA with G27A, A28C, G30U, U31C
DNA 1: CAATCTGAATTCCGGTCTCCC
DNA 2: TGGTGGCTACGACGGGATT
B15: UACUCAG (DNA:RNA)
RNA: B2 RNA with C26A, A27C, U29C
DNA 1: CAATCTGAATTCCGGTCTCCC
DNA 2: TGGTGGCTACGACGGGATT
B16: CGCAACG (DNA:RNA)
RNA: B1 RNA with U26G, G27C, C29A, G30C, U31G
DNA 1: CAATCTGAATTCCGGTCTCCC
DNA 2: TGGTGGCTACGACGGGATT
B17: ACGUGCA (DNA:RNA)
RNA: B2 RNA with U25A, A27G, U29G, A30C, G31A
DNA 1: CAATCTGAATTCCGGTCTCCC
DNA 2: TGGTGGCTACGACGGGATT
B18: GGCGGCG (DNA:RNA)
RNA: B2 RNA with U25G, C26G, A27C, U28G, U29G, A30C
DNA 1: CAATCTGAATTCCGGTCTCCC
DNA 2: TGGTGGCTACGACGGGATT
B19: UAUACUC (DNA:RNA)
RNA: B1 RNA with C25U, U26A, G27U, G30U, U31C
DNA 1: CAATCTGAATTCCGGTCTCCC
DNA 2: TGGTGGCTACGACGGGATT
B20: GAGCGGA (DNA:RNA)
RNA: B1 RNA with C25G, U26A, A28C, C29G, U31A
DNA 1: CAATCTGAATTCCGGTCTCCC
DNA 2: TGGTGGCTACGACGGGATT

Numbering of substitutions follows the chain as printed; changes in the protein carry UniProt numbers. This is one part of the list.

In the experiment the target is T1, RBFOX1 RRM. The experiment in a line: EMSA; HiTS-Eq, 1 nM pool, 10 min; buffer printed only for the single-RNA assays: 10 mM Tris pH 7.5, 150 mM NaCl, 3.4 mM EDTA, 0.001% NP-40, 30 C. Particulars: tags: His6 N-terminal (pET28a); label: 5' 32P. The method, boiled down: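 A pool of RNA with 7 randomized nucleotides, 5′-radiolabelled and with DNA-annealed flanks, was equilibrated at 1 nM for 10 min in 50 µL with purified RbFox RRM, wild type or mutant, across increasing protein concentrations. Free RNA was separated by 8% native PAGE, excised, reverse-transcribed, barcoded by PCR and sequenced. Relative association constants were obtained from read-count changes of each RNA species versus the control reaction and normalised to the cognate motif.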
In the case of B1, the binding signal is 0.0141 KA relative to UGCAUGU. With B2 the figure was 0.00799 KA relative to UGCAUGU; with B3, 0.0187 KA relative to UGCAUGU; with B4, 0.00709 KA relative to UGCAUGU.

For the molecule B5, the binding signal is 0.00886 KA relative to UGCAUGU.

In the case of B6, the binding signal was 0.00943 KA relative to UGCAUGU. In the case of B7, the binding signal is 0.0169 KA relative to UGCAUGU. With B8 the figure was 0.00499 KA relative to UGCAUGU.

Consider B9, for which the binding signal was 0.021 KA relative to UGCAUGU.

Consider B10, for which the binding signal was 0.00747 KA relative to UGCAUGU. Under B11 stands 0.012 KA relative to UGCAUGU; under B12, 0.0159 KA relative to UGCAUGU; under B13, 0.0134 KA relative to UGCAUGU.

Regarding B14, the binding signal was 0.00201 KA relative to UGCAUGU. Turning to B15, the binding signal was 0.0175 KA relative to UGCAUGU. With B16, the binding signal was 0.00999 KA relative to UGCAUGU. B17: the binding signal is 0.0167 KA relative to UGCAUGU. Take B18: the binding signal is 0.0264 KA relative to UGCAUGU. Consider B19, for which the binding signal is 0.00278 KA relative to UGCAUGU. For the molecule B20, the binding signal was 0.0138 KA relative to UGCAUGU.
